We go through 65 molecules from the supplement of paper PMC8007513.

Where a name gives a salt, the structure may show the parent alone. ± gives the standard error. About 75 (6%) of roughly 1,300 compounds showed an effect of 50% or more. This is one part of the list.

The test system of the assay is Trichoderma virens ATCC 9645. As to the kind of experiment: growth yield (OD600) relative to untreated control; higher = less growth inhibition. The conditions noted are these: compound concentration: 100 uM. The method, boiled down:
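A biocide at 200 ng ml^−1 was co-applied to some wells, and library compounds were present in all test wells at 100 μM final. The wells held 100 μl of Trichoderma virens ATCC 9645 spores at 15,000 spores ml^−1 in potato dextrose broth, grown at 30 °C in 96-well plates, with OD600 read at 40 h and 72 h. Results are relative growth against the control without either agent, averaged across duplicate screens.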

Turning to `C#C[C@]1(O)CC[C@H]2[C@@H]3CCc4cc(O)ccc4[C@H]3CC[C@@]21C` [Ethinylestradiol], the growth yield is, setting by setting: (40 h) 79.3 ± 4.3%; (72 h) 80.1 ± 1.7%.
On to `CCOC(=O)C1=C(C)NC(C)=C(C(=O)OCC)C1c1ccccc1/C=C/C(=O)OC(C)(C)C` [Lacidipine], for which the growth yield turned out to be 96.1 ± 4.6% (40 h) and 96.3 ± 5.7% (72 h).
The matching figures for `CCOc1cc(CC(=O)N[C@@H](CC(C)C)c2ccccc2N2CCCCC2)ccc1C(=O)O` [Repaglinide]: 113 ± 3.3% and 103 ± 2.7%.
For `CC(=O)OCC(=O)[C@@]1(O)[C@H](C)C[C@H]2[C@@H]3CCC4=CC(=O)C=C[C@]4(C)[C@@]3(F)[C@@H](O)C[C@@]21C` [Dexamethasone acetate], in that order: 102 ± 4% and 103 ± 3.7%.
For `COc1ncnc(NS(=O)(=O)c2ccc(N)cc2)c1OC` [Sulfadoxine], in that order: 91 ± 9.4% and 101 ± 2.6%.
On to `COc1c(N2C[C@@H]3CCCN[C@@H]3C2)c(F)cc2c(=O)c(C(=O)O)cn(C3CC3)c12` [Moxifloxacin], for which the growth yield (40 h) came to 93.88 ± 0.48% and the growth yield (72 h) worked out at 92 ± 3%.
Take `COc1ccc(C(=O)c2ccccc2)c(O)c1` [Oxybenzone]: the growth yield was 53.8 ± 4.3% (40 h) and 62.9% (72 h).
The molecule `COc1ccc(C(=O)CC(=O)c2ccc(C(C)(C)C)cc2)cc1` [Avobenzone] displayed a growth yield (40 h) of 88.6 ± 5.1% and a growth yield (72 h) of 93.8 ± 4.8%.
For `Nc1nc2c(ncn2COCCO)c(=O)[nH]1` [Acyclovir], in that order: 103.7 ± 0.48% and 101 ± 1.7%.
For `CCCCCN(CCCCC)C(=O)C(CCC(=O)O)NC(=O)c1ccc(Cl)c(Cl)c1` (stereo not given) [Lorglumide sodium salt], in that order: 106 ± 3.6% and 103 ± 1.6%.
For the molecule `CC(C)(C)NC(=O)[C@@H]1C[C@@H]2CCCC[C@@H]2CN1C[C@@H](O)[C@H](Cc1ccccc1)NC(=O)[C@H](CC(N)=O)NC(=O)c1ccc2ccccc2n1` [Saquinavir mesylate], the growth yield came out at 110 ± 3.3% (40 h) and 107 ± 3.1% (72 h).
The matching figures for `CCCC1O[C@@H]2C[C@H]3[C@@H]4CCC5=CC(=O)C=C[C@]5(C)[C@H]4[C@@H](O)C[C@]3(C)[C@]2(C(=O)CO)O1` (stereo not given in full) [Budesonide]: 102.9 ± 0.64% and 105 ± 2.1%.
For `CC(C(=O)O)c1cccc(C(=O)c2ccccc2)c1` (stereo not given) [Ketoprofen], in that order: 88.315 ± 1e-14% and 87.78 ± 0.52%.
Turning to `CC(C)NC[C@H](O)COc1cccc2ccccc12` [(S)-propranolol hydrochloride], the growth yield is, setting by setting: (40 h) 106 ± 5.9%; (72 h) 104 ± 2.3%.
For `CN1C(=O)OC(C)(C)C1=O` [Trimethadione], in that order: 106 ± 2.5% and 102.9 ± 0.73%.
The matching figures for `CC(=O)CCCCn1c(=O)c2c(ncn2C)n(C)c1=O` [Pentoxifylline]: 103 ± 2.1% and 104.3 ± 0.73%.
As to `CN(C/C=C/c1ccccc1)Cc1cccc2ccccc12` [Naftifine hydrochloride], the growth yield by setting is: (40 h) 15.6 ± 1.6%; (72 h) 55.5 ± 4.3%.
As to `OCCN1CCN(CCCN2c3ccccc3C=Cc3ccccc32)CC1` [Opipramol dihydrochloride], the growth yield by setting is: (40 h) 91.3 ± 1.1%; (72 h) 98.1 ± 1.4%.
Consider `CN(C)CCCSC(=N)N` [Dimaprit dihydrochloride], for which the growth yield reads like this: (40 h) 102 ± 3.3%; (72 h) 99.5 ± 3.2%.
For `Cc1onc(-c2c(F)cccc2Cl)c1C(=O)N[C@@H]1C(=O)N2[C@@H]1SC(C)(C)[C@@H]2C(=O)O` [Flucloxacillin sodium], in that order: 95.9 ± 2.9% and 95.86 ± 0.84%.
The matching figures for `C[C@H](Cc1cc2c(c(C(N)=O)c1)N(CCCO)CC2)NCCOc1ccccc1OCC(F)(F)F` [Silodosin]: 105% and 100 ± 2.3%.
Take `O=C(NCCN1CCOCC1)c1ccc(Cl)cc1` [Moclobemide]: the growth yield was found to be 102 ± 2.1% (40 h) and 106 ± 2% (72 h).
For `CCCCCNC(=N)N/N=C/c1c[nH]c2ccc(OC)cc12` [Tegaserod maleate], the growth yield came out at 5.24 ± 0.16% (40 h) and 3.88 ± 0.52% (72 h).
The matching figures for `NS(=O)(=O)c1cc(Cl)c(Cl)c(S(N)(=O)=O)c1` [Dichlorphenamide]: 103 ± 2.1% and 101 ± 1.5%.
Regarding `CCN1CCCC(OC(=O)C(c2ccccc2)c2ccccc2)C1` (stereo not given) [Piperidolate hydrochloride], the growth yield reads like this: (40 h) 106 ± 0.79%; (72 h) 105 ± 1.8%.
The matching figures for `C[C@@H]1C[C@H]2[C@@H]3C[C@H](F)C4=CC(=O)C=C[C@]4(C)[C@@]3(Cl)[C@@H](O)C[C@]2(C)[C@H]1C(=O)COC(=O)C(C)(C)C` [Clocortolone pivalate]: 107 ± 4% and 100 ± 5.7%.
The molecule `OC(c1cc(C(F)(F)F)nc2c(C(F)(F)F)cccc12)C1CCCCN1` (stereo not given) [Mefloquine hydrochloride] returned a growth yield (40 h) of 99.9 ± 1.8% and a growth yield (72 h) of 105 ± 3.5%.
The matching figures for `CNCCCC12CCC(c3ccccc31)c1ccccc12` [Maprotiline hydrochloride]: 93.6 ± 2.1% and 102 ± 1.9%.
For `C[C@]12C=CC(=O)C=C1CC[C@H]1[C@@H]3C[C@@H](O)[C@](O)(C(=O)CO)[C@@]3(C)C[C@H](O)[C@@]12F` [Triamcinolone], the growth yield runs as follows: (40 h) 102 ± 1.9%; (72 h) 101.9 ± 0.63%.
Consider `CC1(C)O[C@@H]2C[C@H]3[C@@H]4CCC5=CC(=O)CC[C@]5(C)[C@@]4(F)[C@@H](O)C[C@]3(C)[C@]2(C(=O)CCl)O1` [Halcinonide], for which the growth yield runs as follows: (40 h) 93.9 ± 1.8%; (72 h) 96.6 ± 1.4%.
The matching figures for `CCN(CC)C(=O)/C(C#N)=C/c1cc(O)c(O)c([N+](=O)[O-])c1` [Entacapone]: 92.4 ± 6.7% and 86.6 ± 12%.
For `C[C@@H](O)[C@H]1C(=O)N2C(C(=O)O)=C(S[C@@H]3CN[C@H](C(=O)N(C)C)C3)[C@H](C)[C@H]12` [Meropenem], in that order: 98.6 ± 7.2% and 96.7 ± 7.1%.
For `CC(=O)O[C@H]1C[C@@H]2CC[C@@H]3[C@H](CC[C@@]4(C)[C@H]3C[C@H]([N+]3(C)CCCCC3)[C@@H]4OC(C)=O)[C@@]2(C)C[C@@H]1N1CCCCC1` [Vecuronium bromide], in that order: 103 ± 4.1% and 98.3 ± 2.4%.
In the case of `CCN(CC)CCOC(=O)c1ccc(N)cc1` [Procaine hydrochloride], the growth yield is, setting by setting: (40 h) 102 ± 4.3%; (72 h) 102 ± 2.3%.
For the molecule `CC[C@H](C)C(=O)O[C@H]1C[C@@H](C)C=C2C=C[C@H](C)[C@H](CC[C@@H]3C[C@@H](O)CC(=O)O3)[C@H]21` [Lovastatin], the growth yield came to 94.8 ± 5.2% (40 h) and 94.5 ± 3.2% (72 h).
The matching figures for `Cc1c(C)c2c(c(C)c1O)CCC(C)(C(=O)O)O2` (stereo not given) [Trolox]: 95.8 ± 1.8% and 95.75 ± 0.94%.
The matching figures for `CC(=O)N[C@@H](CS)C(=O)O` [Acetylcysteine]: 95.78 ± 0.16% and 96.91 ± 0.21%.
The matching figures for `CC(=O)O[C@H]1C[C@@]2(C)[C@@H](C[C@@H](O)[C@H]3[C@@]4(C)CC[C@@H](O)[C@@H](C)[C@@H]4CC[C@@]32C)/C1=C(\CCC=C(C)C)C(=O)O` [Fusidic acid sodium salt]: 110.4 ± 0.48% and 113.6 ± 0.94%.
Take `CN(C)CCn1nnnc1SCC1=C(C(=O)O)N2C(=O)[C@@H](NC(=O)Cc3csc(N)n3)[C@H]2SC1` [Cefotiam hydrochloride]: the growth yield runs as follows: (40 h) 102 ± 1.4%; (72 h) 102.2 ± 0.73%.
The matching figures for `NCCCC(O)(P(=O)(O)O)P(=O)(O)O` [Alendronate sodium]: 103 ± 1.9% and 104 ± 3.4%.
As for `Nc1ccc(S(=O)(=O)Nc2cnc3ccccc3n2)cc1` [Sulfaquinoxaline sodium salt], the growth yield runs as follows: (40 h) 105 ± 5.4%; (72 h) 108 ± 5.5%.
`CNC[C@H](O)[C@@H](O)[C@H](O)[C@H](O)CO` [Meglumine]: the growth yield reads like this: (40 h) 100 ± 5.2%; (72 h) 95.8 ± 2.8%.
`C[C@H]1NC(=O)NC1=O` [Methylhydantoin-5-(D)]: the growth yield (40 h) is 95.3 ± 0.95% and the growth yield (72 h) came to 95 ± 2.1%.
As to `Cc1ccnc(NS(=O)(=O)c2ccc(N)cc2)n1` [Sulfamerazine], the growth yield by setting is: (40 h) 94.4 ± 1.3%; (72 h) 94.7 ± 0.1%.
For the molecule `NC(=O)OCC(COC(N)=O)c1ccccc1` [Felbamate], the growth yield was determined as 102 ± 4% (40 h) and 101 ± 2.6% (72 h).
In the case of `N=C(N)NCc1cccc(I)c1` [Iobenguane sulfate], the growth yield reads like this: (40 h) 105 ± 1.9%; (72 h) 106 ± 1.1%.
The matching figures for `CC(C)n1c(/C=C/C(O)CC(O)CC(=O)O)c(-c2ccc(F)cc2)c2ccccc21` (stereo not given) [Fluvastatin sodium salt]: 1.91 ± 1.3% and 1.78 ± 0.94%.
For `CCCCNc1cc(C(=O)O)cc(S(N)(=O)=O)c1Oc1ccccc1` [Bumetanide], in that order: 98.2 ± 2.2% and 104 ± 1.8%.
The matching figures for `CNC(=O)c1c(I)c(C(=O)NCC(=O)Nc2c(I)c(C(=O)O)c(I)c(C(=O)NCCO)c2I)c(I)c(N(C)C(C)=O)c1I` [Ioxaglic acid]: 105 ± 5.2% and 101 ± 2.2%.
Consider `CC(=O)Oc1ccccc1C(=O)Oc1ccccc1C(=O)O` [Acetylsalicylsalicylic acid], for which the growth yield (40 h) was 95.3 ± 4.5% and the growth yield (72 h) is 88.8 ± 4.9%.
The matching figures for `Nc1ncnc2c1ncn2C1OC(COP(=O)(O)O)C(O)C1O` (stereo not given) [Adenosine 5'-monophosphate monohydrate]: 106 ± 1.3% and 107 ± 3.6%.
`C[C@@H]1C[C@H]2[C@@H]3CCC4=CC(=O)C=C[C@]4(C)[C@@]3(Cl)[C@@H](O)C[C@]2(C)[C@@]1(OC(=O)c1ccco1)C(=O)CCl` [Mometasone furoate]: the growth yield is, setting by setting: (40 h) 96.6 ± 1.3%; (72 h) 95.86 ± 0.21%.
For `CN1CCCN(C(c2ccccc2)c2ccc(Cl)cc2)CC1` (stereo not given) [Homochlorcyclizine dihydrochloride], in that order: 86.4% and 96.8 ± 0.73%.
Take `CCOc1ccc2nc(S(N)(=O)=O)sc2c1` [Ethoxzolamide]: the growth yield reads like this: (40 h) 113 ± 14%; (72 h) 110 ± 11%.
The matching figures for `CCCCc1ccc2[nH]c(NC(=O)OC)nc2c1` [Parbendazole]: 53.4 ± 1.9% and 95.9 ± 10%.
For `C/C(=C\C(=O)OCCCCCCCCC(=O)O)C[C@@H]1OC[C@H](C[C@@H]2O[C@H]2[C@@H](C)[C@H](C)O)[C@@H](O)[C@H]1O` [Mupirocin], in that order: 6.04 ± 2.9% and 39.5 ± 8.5%.
In the case of `CN/C(=N\CCSCc1nc[nH]c1C)NC#N` [Cimetidine], the growth yield by setting is: (40 h) 103 ± 4.6%; (72 h) 102 ± 3.8%.
On to `CCc1cccc(CC)c1NC(=O)CN(CC(=O)O)CC(=O)O` [Etifenin], for which the growth yield came to 100.2 ± 0.48% (40 h) and 99 ± 2.3% (72 h).
As to `O=C(O)c1cc(/N=N/c2ccc(S(=O)(=O)Nc3ccccn3)cc2)ccc1O` [Sulfasalazine], the growth yield is 109 ± 2.9% (40 h) and 111.4 ± 0.21% (72 h).
`CC(N)CCCC(C)(C)O` (stereo not given) [Heptaminol hydrochloride]: the growth yield by setting is: (40 h) 101 ± 3.6%; (72 h) 101 ± 2%.
The matching figures for `CN1CCCN=C1/C=C/c1cccc(O)c1` [Oxantel pamoate]: 93.4 ± 0.64% and 99.8 ± 1.1%.
For `C[C@@H](O[C@H]1OCCN(Cc2n[nH]c(=O)[nH]2)[C@H]1c1ccc(F)cc1)c1cc(C(F)(F)F)cc(C(F)(F)F)c1` [Aprepitant], in that order: 106% and 98.06 ± 0.32%.
The matching figures for `CC=CC1=C(C(=O)O)N2C(=O)[C@@H](NC(=O)[C@H](N)c3ccc(O)cc3)[C@H]2SC1` [Cefprozil]: 100 ± 1.4% and 92.7 ± 3.1%.
For the molecule `Cc1cc2c(s1)Nc1ccccc1N=C2N1CCN(C)CC1` [Olanzapine], the growth yield was 99.1 ± 1.6% (40 h) and 99.9 ± 2% (72 h).
With `Cc1c(O)c(=O)n(-c2ccccc2)n1C` [Antipyrine, 4-hydroxy], the growth yield is, setting by setting: (40 h) 94 ± 3.2%; (72 h) 89.04 ± 0.52%.
